Results as given in article PMC4336329 (PLoS ONE, 2015).
The whole screen tested about 310,000 compounds, of which about 14,000 (4.5%) showed an effect of 50% or more. Effects have a minus sign here. Some of the results follow.
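Also: peak tail current of the secondary pulse compared with the same well before compound.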

Each compound was assayed against human ether-à-go-go-related gene (hERG) potassium channel (human, UniProt Q12809) (assay: primary screen, population patch clamp on CHO cells stably expressing hERG).
Sequence of human ether-à-go-go-related gene (hERG) potassium channel (Q12809 whole entry, looked up): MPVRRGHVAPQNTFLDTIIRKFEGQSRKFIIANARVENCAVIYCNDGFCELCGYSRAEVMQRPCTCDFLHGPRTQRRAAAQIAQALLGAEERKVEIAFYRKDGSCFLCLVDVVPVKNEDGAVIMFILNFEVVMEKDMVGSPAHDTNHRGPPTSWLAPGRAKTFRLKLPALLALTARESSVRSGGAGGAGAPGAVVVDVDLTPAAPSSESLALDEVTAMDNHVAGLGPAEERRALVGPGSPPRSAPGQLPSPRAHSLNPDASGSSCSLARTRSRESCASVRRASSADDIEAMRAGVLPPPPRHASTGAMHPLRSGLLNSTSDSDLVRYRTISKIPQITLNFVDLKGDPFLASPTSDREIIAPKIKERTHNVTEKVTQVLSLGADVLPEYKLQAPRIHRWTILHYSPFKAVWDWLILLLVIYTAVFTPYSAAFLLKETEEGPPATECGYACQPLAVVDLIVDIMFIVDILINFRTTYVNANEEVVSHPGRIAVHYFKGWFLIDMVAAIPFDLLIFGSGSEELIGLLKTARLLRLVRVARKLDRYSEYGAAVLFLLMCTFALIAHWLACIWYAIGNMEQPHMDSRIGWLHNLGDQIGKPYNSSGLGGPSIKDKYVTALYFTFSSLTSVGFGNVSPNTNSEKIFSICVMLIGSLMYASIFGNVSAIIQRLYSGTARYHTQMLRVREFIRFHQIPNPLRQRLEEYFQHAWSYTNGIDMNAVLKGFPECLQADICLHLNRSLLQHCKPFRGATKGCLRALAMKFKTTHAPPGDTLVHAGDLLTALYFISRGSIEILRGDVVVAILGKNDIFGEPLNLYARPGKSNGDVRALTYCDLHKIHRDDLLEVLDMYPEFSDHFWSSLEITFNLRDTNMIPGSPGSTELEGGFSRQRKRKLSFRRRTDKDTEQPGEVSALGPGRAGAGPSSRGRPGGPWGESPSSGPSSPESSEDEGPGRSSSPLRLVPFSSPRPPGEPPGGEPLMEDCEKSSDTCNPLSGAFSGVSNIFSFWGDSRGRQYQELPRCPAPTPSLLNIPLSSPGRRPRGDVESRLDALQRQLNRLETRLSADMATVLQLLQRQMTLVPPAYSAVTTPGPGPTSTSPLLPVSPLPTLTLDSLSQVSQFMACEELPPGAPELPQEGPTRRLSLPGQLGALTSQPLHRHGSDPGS
In the case of `O=C(CBr)Nc1c2c(nn1-c1ccccc1)CSC2`, the “hERG current change (%, negative = inhibition) at 10uM” value is reported as 17.4%.
`O=C1C(=O)N(Cc2cccc([N+](=O)[O-])c2)c2ccccc21` was tested, and the “hERG current change (%, negative = inhibition) at 10uM” value was -13.9%.
`NNC(=O)c1ccc(COc2cccc3ccccc23)o1` was tested, and the “hERG current change (%, negative = inhibition) at 10uM” value was 8.08%.
With `Cc1ccccc1C1C2=C(Nc3[nH]n(-c4ccccc4)c(=O)c31)c1ccccc1C2=O` (centres unmarked) the “hERG current change (%, negative = inhibition) at 10uM” value was -1.84%.
In the case of `CCc1nnc(N/N=C/c2c(F)cccc2Cl)n1N`, the “hERG current change (%, negative = inhibition) at 10uM” value is reported as 7.54%.
In the case of `CCc1ccc(/C=C2\Oc3c(ccc(O)c3CN3CCN(C)CC3)C2=O)cc1`, the “hERG current change (%, negative = inhibition) at 10uM” value is reported as -0.96%.
`Cc1ccc(C(CC(=O)N2CCCCC2)c2ccccc2)c(O)c1C` (centres unmarked) was tested, and the “hERG current change (%, negative = inhibition) at 10uM” value was -22.1%.
`CCCn1c(N)c(C(=O)CSc2nnc(Cc3cccs3)n2C2CC2)c(=O)n(C)c1=O` was tested, and the “hERG current change (%, negative = inhibition) at 10uM” value was -0.534%.
With `O=C(COC(=O)c1cccnc1)c1ccc(Cl)c(Cl)c1` the “hERG current change (%, negative = inhibition) at 10uM” value was 1.54%.
In the case of `O=S(=O)(c1cccs1)N1CCN(c2ccccn2)CC1`, the “hERG current change (%, negative = inhibition) at 10uM” value is reported as -12.6%.
With `O=C(CCN1CCN(c2ccccc2)CC1)NNC(=S)Nc1ccccc1` the “hERG current change (%, negative = inhibition) at 10uM” value was -22.3%.
For `COc1ccc(C(C(=O)NC(C)(C)C)N(Cc2cccnc2)C(=O)CCC(=O)Nc2cc(C)on2)cc1` (centres unmarked), the “hERG current change (%, negative = inhibition) at 10uM” value was 10.9%.
With `CCC(=O)N/C(N)=N/c1nc2ccccc2o1` the “hERG current change (%, negative = inhibition) at 10uM” value was -10.3%.
In the case of `COc1ccc2nc(NC(=O)c3cccc(OCc4c(C)noc4C)c3)sc2c1`, the “hERG current change (%, negative = inhibition) at 10uM” value is reported as -9.95%.
For `COc1ccc(OC)c(NC(=O)C2CCCC2)c1`, the “hERG current change (%, negative = inhibition) at 10uM” value was -22.3%.
For `CC1CC(C)CN(S(=O)(=O)c2cc3c(cc2Cl)NC(=O)CO3)C1` (centres unmarked), the “hERG current change (%, negative = inhibition) at 10uM” value was -9.87%.
In the case of `O=C1NC(=S)NC(=O)C1=Cc1ccc(Br)s1`, the “hERG current change (%, negative = inhibition) at 10uM” value is reported as 21.2%.
With `O=C(CCc1ccccc1)Nc1c(F)cccc1F` the “hERG current change (%, negative = inhibition) at 10uM” value was -3.59%.
`Cc1ccc(OCCCC(=O)Nc2ccc(S(=O)(=O)N3CCOCC3)cc2)cc1` was tested, and the “hERG current change (%, negative = inhibition) at 10uM” value was -25.7%.
`O=S(=O)(Nc1cccc(CCc2ccccn2)c1)c1ccc(Cl)cc1` was tested, and the “hERG current change (%, negative = inhibition) at 10uM” value was 2.37%.
With `CCCn1cc(CN2CCCC(C(=O)c3ccc4c(c3)OCO4)C2)c(C)n1` (centres unmarked) the “hERG current change (%, negative = inhibition) at 10uM” value was -55.4%.
`CC(=O)N1CCc2ccc(NC(=O)c3c(-c4c(Cl)cccc4Cl)noc3C)cc21` was tested, and the “hERG current change (%, negative = inhibition) at 10uM” value was 7.21%.
`CCCN1CC=C2C(C#N)=C(N)C(C#N)(C#N)C(c3cccc(OC)c3OC)C2C1` (centres unmarked) was tested, and the “hERG current change (%, negative = inhibition) at 10uM” value was -4.54%.
With `CN1CCN(C(=O)c2ccc(S(=O)(=O)c3ccc(Br)cc3)cc2)CC1` the “hERG current change (%, negative = inhibition) at 10uM” value was -37.3%.
In the case of `CSc1nnc(SCC2=NNC(=O)SC2)s1`, the “hERG current change (%, negative = inhibition) at 10uM” value is reported as 10.1%.
For `COc1ccccc1CNC(=O)c1cccc(C)c1[N+](=O)[O-]`, the “hERG current change (%, negative = inhibition) at 10uM” value was -3.33%.
With `Cc1ccc(S(=O)(=O)Nc2ccc3c(c2)nc(CCN2CCN(c4ccccn4)CC2)n3C)cc1` the “hERG current change (%, negative = inhibition) at 10uM” value was -84.6%.
In the case of `CSc1ccc(CN(C)CC(=O)NCc2ccc(F)cc2)cc1`, the “hERG current change (%, negative = inhibition) at 10uM” value is reported as -70.1%.
`COc1cc(C(=O)NC2=C(C#N)CCC2)cc(OC)c1OC` was tested, and the “hERG current change (%, negative = inhibition) at 10uM” value was 9.66%.
In the case of `CCOc1ccc(N2C(=O)CC(N3CCN(c4ccccc4F)CC3)C2=O)cc1` (centres unmarked), the “hERG current change (%, negative = inhibition) at 10uM” value is reported as 6.59%.
`CCCNC(=O)COC(=O)c1ccc(Cl)c(S(=O)(=O)N2CCCC2)c1` was tested, and the “hERG current change (%, negative = inhibition) at 10uM” value was -10.7%.
For `CCn1ccnc1[C@@H]1C[C@H]2CN(Cc3ccccc3OC)C(=O)[C@]23CCCN13`, the “hERG current change (%, negative = inhibition) at 10uM” value was 21.9%.
In the case of `Cc1cc([N+](=O)[O-])ccc1NC(=O)CSc1nccc(=O)[nH]1`, the “hERG current change (%, negative = inhibition) at 10uM” value is reported as 18.7%.
For `NS(=O)(=O)c1ccc(N=Nc2c(O)[nH]c3ccc(Br)cc23)cc1`, the “hERG current change (%, negative = inhibition) at 10uM” value was 18.3%.
With `COc1cc(C(=S)N2CCOCC2)cc(OC)c1OC(=O)c1cccc(C)c1` the “hERG current change (%, negative = inhibition) at 10uM” value was -8.37%.
`CCS(=O)(=O)c1nc(S(=O)(=O)c2ccc(C)cc2)c(N2CCC(O)CC2)s1` was tested, and the “hERG current change (%, negative = inhibition) at 10uM” value was 1.7%.
In the case of `Oc1ccc(Cl)cc1CNn1cnnc1`, the “hERG current change (%, negative = inhibition) at 10uM” value is reported as 22%.
In the case of `Cc1ccc(NC(=O)CCc2nnc3ccc(NCc4ccco4)nn23)cc1F`, the “hERG current change (%, negative = inhibition) at 10uM” value is reported as -70.9%.
In the case of `COc1ccc(C(=O)Nc2nnc(SCC(=O)NCc3ccco3)s2)cc1OC`, the “hERG current change (%, negative = inhibition) at 10uM” value is reported as -1.6%.
For `CC(C)(C)C(=O)NC1(C(F)(F)F)N=C2SCCN2C1=O` (centres unmarked), the “hERG current change (%, negative = inhibition) at 10uM” value was -4.77%.
For `CC(C)CCn1c(=O)c2ccccc2n2c(CCl)nnc12`, the “hERG current change (%, negative = inhibition) at 10uM” value was -32.8%.
In the case of `COc1ccc(OC)c(C2NC(=O)c3sc(=S)n(-c4ccccc4)c3N2)c1` (centres unmarked), the “hERG current change (%, negative = inhibition) at 10uM” value is reported as -27%.
In the case of `O=[N+]([O-])c1ccc(C2=NN(CCO)C(=Nc3ccc(OC(F)(F)F)cc3)SC2)cc1`, the “hERG current change (%, negative = inhibition) at 10uM” value is reported as -13.5%.
For `CNC(=O)N(C)c1ccc(C(O)(C(=O)OC)C(F)(F)F)cc1` (centres unmarked), the “hERG current change (%, negative = inhibition) at 10uM” value was 4.55%.
